Consider 42 sequences from paper PMC7819943, “Rice protein-binding microarrays: a tool to detect cis-acting elements near promoter regions in rice”.

This is one part of the list.

The target of the test is T1, OsWOX13 (Oryza sativa, UniProt Q5QMM3 1-267).
T1 sequence: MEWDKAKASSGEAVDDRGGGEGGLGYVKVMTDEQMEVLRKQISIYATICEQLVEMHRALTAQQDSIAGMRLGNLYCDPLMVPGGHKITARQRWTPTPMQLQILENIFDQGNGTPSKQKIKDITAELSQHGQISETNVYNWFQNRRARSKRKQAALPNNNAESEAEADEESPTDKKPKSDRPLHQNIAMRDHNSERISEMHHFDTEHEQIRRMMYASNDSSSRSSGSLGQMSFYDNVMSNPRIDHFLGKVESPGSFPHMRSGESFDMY
In words: protein-binding microarray (RPBM); PBS, 2% BSA, 51.3 ng/ul salmon testes DNA, 50 uM zinc acetate, 200 nM TF, 25 C, 1 h; high values mean tight binding. To be noted: protein: recombinant; tags: N-terminal polyhistidine and DsRed monomer fusion (pET32a); label: CyDye5-dUTP incorporated in the synthesized complementary strand; 3' TTTTT single-stranded linker to array surface; dsDNA, one strand shown. A digest of the protocol:
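The binding signal is fluorescence intensity per feature, in arbitrary units, read on an Axon 4000B scanner. Polyhistidine- and DsRed-tagged transcription factors (N-terminal fusions) from E. coli BL21-CodonPlus were purified on Ni–NTA and applied at 200 nM for 1 h at 25 °C to a double-stranded, BSA-blocked custom Agilent array in buffer with 50 µM zinc acetate.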
For “TAGTAGACTAGCAGGAGTCCACATCGTCCCATCAACGCTGCGGAGTCACCTAGTGCAG”, the binding signal was 10100 fluorescence intensity (a.u.). For “ATTACTATGATTACTATAATGTACCCTCAAAGCGTGTAGACGGAGTCACCTAGTGCAG”, the binding signal was 7510 fluorescence intensity (a.u.).

As for “GTAAACTGCAATCAATCAGCCATTAAAATCTCATGCTCTGCGGAGTCACCTAGTGCAG”, the binding signal was 60000 fluorescence intensity (a.u.). The same measure for “ATATGTTAAATATTTAATTAAATATTCGATGTGACCGGAGCGGAGTCACCTAGTGCAG”: 17600 fluorescence intensity (a.u.); for “CATGAACCTCCAAATTAAATAAATTATTTATTTCATTATTCGGAGTCACCTAGTGCAG”: 5260 fluorescence intensity (a.u.); for “CTAATTATAAATATTAAACGTAGACTATTAATAAAACCCACGGAGTCACCTAGTGCAG”: 5390 fluorescence intensity (a.u.). Under “AAAACTAATGTAACTTAATATTAACTACTCCCCTTTCTCACGGAGTCACCTAGTGCAG” stands 6350 fluorescence intensity (a.u.). Under “GTTTGTAATAATTAATATTCGGTTGATCATTTGCGGCTTGCGGAGTCACCTAGTGCAG” stands 7130 fluorescence intensity (a.u.); under “CAATCATTGATTGTTACTTTGTTAGTAATTGGTTAGTATACGGAGTCACCTAGTGCAG”, 30100 fluorescence intensity (a.u.). In the case of “TGGTAATGAATGTTAACTATCATGAGGGGTGTTATTTACACGGAGTCACCTAGTGCAG”, the binding signal is 8500 fluorescence intensity (a.u.). Regarding “ATGACTATTTTCACCTATAATTATAAGTTATGGAACAATACGGAGTCACCTAGTGCAG”, the binding signal was 4820 fluorescence intensity (a.u.). The same measure for “CTTAAATTATATAAAGATTTAAGTCCAAGTTTATGGAGTTCGGAGTCACCTAGTGCAG”: 37500 fluorescence intensity (a.u.); for “AATCGTACCATACAAATTACAAATTAAACACCTTCAGATCCGGAGTCACCTAGTGCAG”: 4020 fluorescence intensity (a.u.); for “GTAGATGACAGCAACAAATTATATGAGCGTGTGCTTTCAACGGAGTCACCTAGTGCAG”: 12300 fluorescence intensity (a.u.).

For “ACTTGATTTATCACCAAATATTCTTTAAGCATGATGTAAGCGGAGTCACCTAGTGCAG”, the binding signal was 38700 fluorescence intensity (a.u.).

Take “GGCTGGTGATTGGGCTCAGGCAAGGTGATTGGGCTGGGCTCGGAGTCACCTAGTGCAG”: the binding signal is 33900 fluorescence intensity (a.u.). For the sequence “TACTCAATCTATTGTACTGTTTGAACTCATGACAATTAAACGGAGTCACCTAGTGCAG”, the binding signal was 3230 fluorescence intensity (a.u.). The same measure for “CGATCTCTCCTGTCTAATTTGTGTCTCGTAGAACCTACTCCGGAGTCACCTAGTGCAG”: 3850 fluorescence intensity (a.u.); for “AGCCTATTTGCGCGATGATTTGACAATGTGATGCTACAGTCGGAGTCACCTAGTGCAG”: 4260 fluorescence intensity (a.u.); for “TGAAATTAAACGGCATTACGTCCATGGAAATGGTTCTCGACGGAGTCACCTAGTGCAG”: 3500 fluorescence intensity (a.u.).

As to “GAACAAAATGACAATTTGGAACACCTGCCAATTTCGTTAGCGGAGTCACCTAGTGCAG”, the binding signal was 3630 fluorescence intensity (a.u.). In the case of “AAATGGCTAAATGGTTGATTACCAGCTTACTCTTGAATTGCGGAGTCACCTAGTGCAG”, the binding signal is 6640 fluorescence intensity (a.u.). The same measure for “CTATATAAATTTTATATATACTAACTTTGTATGTTGCAACCGGAGTCACCTAGTGCAG”: 4150 fluorescence intensity (a.u.); for “TTGATATTCTTTATATGATTATATAGGATTGGTCTCCCTCCGGAGTCACCTAGTGCAG”: 3530 fluorescence intensity (a.u.). The same measure for “CACAATAATTACTACTCCCTCCGTCCCAGAATATACTAATCGGAGTCACCTAGTGCAG”: 10100 fluorescence intensity (a.u.); for “TTCACAATTTGATGCATAAAAGAAATCAATTGGGCCGGTGCGGAGTCACCTAGTGCAG”: 3840 fluorescence intensity (a.u.); for “TGCCTAATTGTTGCCATTGATTTGTTAGCCACACCTTTGGCGGAGTCACCTAGTGCAG”: 40300 fluorescence intensity (a.u.).

In the case of “GCTCTGATTGCTCTGACCCAACCATTCTGATCAAGCATAGCGGAGTCACCTAGTGCAG”, the binding signal is 25000 fluorescence intensity (a.u.). Consider “TTTGTGATAAACAGATACACTAAATCTATAGTTTTGGGAACGGAGTCACCTAGTGCAG”, for which the binding signal was 4340 fluorescence intensity (a.u.). The same measure for “AGATAACAAATTGGACATACCATTACCAACATAACCTTAGCGGAGTCACCTAGTGCAG”: 11500 fluorescence intensity (a.u.).

“ATTGATAGTATATAATATATCACATTTCATACTTCCTTCGCGGAGTCACCTAGTGCAG”: the binding signal was 5840 fluorescence intensity (a.u.).

Regarding “GCAGACTGATTGCAAGAGTTGAGTAAGATCCTGGATCTCTCGGAGTCACCTAGTGCAG”, the binding signal was 27900 fluorescence intensity (a.u.). With “TTTGATGTGATGGAAAAGTTGAAAGTTTGAAGTAAACTCGCGGAGTCACCTAGTGCAG”, the binding signal is 9880 fluorescence intensity (a.u.). Under “AAACTGATTGAAAGGCCCCACCAACCAGAAAAGCACCATCCGGAGTCACCTAGTGCAG” stands 32100 fluorescence intensity (a.u.); under “CTGAAATTGAAGTTAAATGCTACTAGTAATAATTGTACTACGGAGTCACCTAGTGCAG”, 30100 fluorescence intensity (a.u.); under “TCTGGAAATTTGGGCTAAATTTCTGGGCGTGACACTACTCCGGAGTCACCTAGTGCAG”, 4830 fluorescence intensity (a.u.). The same measure for “AAGAATAGACGAGGCTAATTAAGCTAAAGACTTTCTTGGACGGAGTCACCTAGTGCAG”: 16700 fluorescence intensity (a.u.). The same measure for “CCCACTTATTTGATTTGTCTTAATTCCCATAGCAATTCTTCGGAGTCACCTAGTGCAG”: 15100 fluorescence intensity (a.u.). For “CGATGACTGAATTATCACACTTACGTATGGTGACTATTAACGGAGTCACCTAGTGCAG”, the binding signal was 11600 fluorescence intensity (a.u.). The same measure for “GAACCATTTCAACGCGAGGTTGATTGTCTCATGAGGATTACGGAGTCACCTAGTGCAG”: 3260 fluorescence intensity (a.u.). The same measure for “AATAATAACTTAATTAATTATGTACTAATGACTCAATTTTCGGAGTCACCTAGTGCAG”: 26000 fluorescence intensity (a.u.). Regarding “AACAAATAAATTACTATTAGAGTAGGATGTTCGGCAAAGTCGGAGTCACCTAGTGCAG”, the binding signal is 7390 fluorescence intensity (a.u.).
